Source: ChEMBL document CHEMBL4888484, “Replenishing the malaria drug discovery pipeline: Screening and hit evaluation of the MMV Hit Generation Library 1 (HGL1) against asexual blood stage Plasmodium falciparum ,using a nano luciferase reporter read-out” (2022)
Out of some 150,000 compounds screened, about 540 (0.36%) showed an effect of 50% or more. The list shows a part of the results.

Each compound was assayed on Plasmodium falciparum (assay: Primary screen in NF54 nanoGlo assay, in single point, at 2uM, 72h; a lower Z score goes with more inhibition). Conditions: timepoint 72 hour.
Type: functional, Erythrocyte

| Structure (SMILES) | % Inhibition | Z score |
| --- | --- | --- |
| C[C@@H](C(=O)Nc1ncccn1)N(C)CCc1ccc(Cl)cc1 | 3% | -0.54 |
| COc1ccc(CC(=O)N2CCN(c3ccc(-c4ccc(C)cc4C)nn3)CC2)cc1OC | 1% | -0.13 |
| Cc1ccc(F)c(OCC(=O)N2CC3(CCOC3)C2)c1 | -8% | 1.49 |
| NC(=O)[C@@H]1C[C@@H](O)CN1C1CCN(Cc2cccc(Cl)c2)CC1 | -8% | 1.3 |
| C=CC[C@@H]1N(C(=O)Nc2ccnnc2C)CCCC1(C)C | -6% | 0.64 |
| CC(C)(C)OC(=O)N1CC(c2ccccc2)CC1C(=O)O (stereo unspecified) | 11% | -1.69 |
| CCC[C@H](NC(=O)Nc1ccc(Cl)c(C)c1)c1nccn1C | -6% | 0.94 |
| CC(C)NC1CCN(CC(=O)N[C@H](c2ccc(F)cc2)C2CCCC2)CC1 | 1% | -0.14 |
| COc1ccc(CC2=NOC(C(=O)N3CCCCC3c3nccn3C)C2)cc1 (stereo unspecified) | -7% | 1.31 |
| CCN(C)S(=O)(=O)Nc1cc(C(=O)O)ccc1OC(F)(F)F | -7% | 0.85 |
| O=C(c1cncc(N2C[C@@H]3c4ccccc4OC[C@]3(CO)C2)n1)N1CCCC1 | -22% | 1.92 |
| Cc1ccn2c(NCc3cccnc3)nnc2c1 | -2% | 0.45 |
| O=C(c1cnn2c1CCC2)N1CCN2CCOc3cccc1c32 | -7% | 0.97 |
| CCc1nc(NC(=O)NCc2cn(C)cn2)sc1C(C)(C)C | -11% | 1.52 |
| COC1CCCC1OC(=O)c1ccc2c(c1)N(C)CC2 (stereo unspecified) | 14% | -1.53 |
| O=S(=O)(c1cccc2nonc12)n1cccn1 | -10% | 1.15 |
| CN(C)CCOc1cc(C(=O)Nc2cccc3[nH]ccc23)ccn1 | -7% | 0.92 |
| CCCNc1ncc(CN(C)Cc2nnc(C)o2)cn1 | 10% | -1.32 |
| CC(C)c1noc(C(C)NCC2CCCn3ccnc32)n1 (stereo unspecified) | -1% | 0.24 |
| O=C(CNc1ccccc1)Nc1nc(-c2ccc(Cl)cc2)cc(-c2ccc(Cl)cc2)n1 | -3% | 0.51 |
| COc1cc(NC(=O)Nc2cc(OC)c3c(c2)OCO3)cc2c1OCO2 | 18% | -2.28 |
| Cc1cc(F)ccc1N1CCC[C@H](Nc2ncccn2)C1=O | -5% | 0.63 |

| Structure (SMILES) | % Inhibition | Z score |
| --- | --- | --- |
| COc1ccc(C2=NO[C@@H](CN(Cc3cccc(Cl)c3)C(=O)c3ccccc3F)C2)cc1 | -10% | 0.97 |
| COc1ccc(C(=O)N2CC[C@H](N)C2)cc1-c1ccccc1 | -5% | 0.69 |
| CCN(C)C(=O)c1ccc(-c2ccnc3c2ccn3C)nc1 | 0% | -0.03 |
| CCn1cncc1S(=O)(=O)N(C)C1(C)CCCC1 | -10% | 1.01 |
| CCC(C)OCC(=O)N1CC(=O)NC(C)C1 (stereo unspecified) | 1% | -0.17 |
| NS(=O)(=O)c1ccc(CCNC(=O)C(Cl)(Cl)Cl)cc1 | 9% | -1.06 |
| C(#CCN1CCN(CC#CCOC(c2ccccc2)c2ccccc2)CC1)COC(c1ccccc1)c1ccccc1 | 1% | -0.13 |
| COc1ccc(NC(=O)c2ccc(NC(=O)c3cc(S(=O)(=O)Nc4ccccc4OC)ccc3C)cc2)cc1 | -3% | 0.36 |
| C[C@H]1Cc2ccccc2N1C(=O)C1CCC(=O)CC1 | 2% | -0.2 |
| COc1ccc(S(=O)(=O)N2CCC3(CC2)Nc2ccc(Cl)cc2-n2cccc23)cc1 | -12% | 1.59 |
| CC(C)c1nccc(NCCc2cc[nH]n2)n1 | -5% | 0.63 |
| Cc1nnc2n1C[C@@H](NCc1csc(-c3ccccn3)n1)CC2 | -3% | 0.53 |
| CN(C)c1ccc(C(=O)N2CCN(c3ncccn3)CC2)cn1 | -7% | 1.33 |
| CCCN(CCc1c[nH]c2ccc(NC(=O)CCC3CCCC3)cc12)CC1CC1 | 5% | -0.79 |
| CC1CN(Cc2ccccc2)CC1NC(=O)NCc1cnn(C)c1 (stereo unspecified) | 1% | -0.18 |
| O=C(c1ccsc1)N1C[C@@H]2C[C@H](NS(=O)(=O)c3ccccc3)[C@H]1C2 | 35% | -3.97 |
| CC(=O)c1ccc(CNC(=O)c2ccoc2)nc1C | -12% | 2.1 |
| CCS(=O)(=O)NCCCNc1c(Cl)cccc1C#N | 5% | -0.54 |
| CN1CCOC(C(=O)NC(CO)c2ccc(Cl)cc2C(F)(F)F)C1 (stereo unspecified) | -4% | 0.49 |
| Fc1cccc(COc2nc3cc4c(cc3cc2CNCCn2ccnc2)OCO4)c1 | 14% | -2.59 |
| Cc1cccc(NC2CCN(C(=O)NC3CC3)CC2)n1 | -10% | 1.58 |
